Columns and labels:
pertussis toxin (PT) [1] = biological target: T1, pertussis toxin (PT) (Bordetella pertussis); assay: ELISA, PT coated 0.3 µg/well, anti-human IgG Fc-HRP, four-parameter fit
T1 construct: also called recombinant pertussis toxin protein; PT toxin

pertussis toxin (PT) [2] = biological target: T1, pertussis toxin (PT); assay: BLI (Octet), Fc fusion on AHC biosensor, PT 6.25-100 nM in solution, 1:1 model

Binder | EC50 (pertussis toxin (PT) [1]) | also measured
huPT7v2Fc (Fc fusion) QVQLVESGGGLVQPGGSLRLSCAASGYTYSSYCMGWFRQAPGKEREGVAAIDSDGRTSYADFVKGRFTISRDNSKNTLYLQMNSLRAEDTAVYYCATEQRIGGSWYDLCGGADFGYWGQGTLVTVSS[human IgG1 Fc cut from this listing] | 0.0337 mg/L | –
huPT7v7Fc (Fc fusion) VHH-Fc: QVQLVESGGGLVQPGGSLRLSCAASGYTYSSYCMGWFRQAPGKEREGVAAIDSDGRTSYADFVKGRFTISKDNSKNTLYLQMNSLRAEDTAVYYCATEQRIGGSWYDLCGGADFGYWGQGTLVTVSS[human IgG1 Fc cut from this listing] | 0.036 mg/L | –
huPT7v10Fc (Fc fusion) VHH-Fc: QVQLVESGGGSVQAGGSLRLSCAASGYTYSSYCMGWFRQAPGKEREGVAAIDSDGRTSYADFVKGRFTISRDNSKNTLYLQMNSLRAEDTAVYYCATEQRIGGSWYDLCGGADFGYWGQGTLVTVSS[human IgG1 Fc cut from this listing] | 0.0356 mg/L | –
huPT7v9Fc (Fc fusion) VHH-Fc: QVQLVESGGGSVQAGGSLRLSCAASGYTYSSYCMGWFRQAPGKGLEGVAAIDSDGRTSYADFVKGRFTISRDNSKNTLYLQMNSLRAEDTAVYYCATEQRIGGSWYDLCGGADFGYWGQGTLVTVSS[human IgG1 Fc cut from this listing] | 0.0346 mg/L | –
huPT42v1Fc (Fc fusion) QVQLVESGGGSVQAGGSLRLSCAASGYTYSDVCMGWFRQAPGKEREGVAAIDSVGNTNYADSVKGRFTISKDNSKNTLYLQMNSLRAEDTAVYYCAAQRCLGWVPLVPHEYGYWGQGTLVTVSS[human IgG1 Fc cut from this listing] | 0.0258 mg/L | –
huPT42v7Fc (Fc fusion, also called huPT427F0) QVQLVESGGGLVQPGGSLRLSCAASGYTYSDVCMGWFRQAPGKEREGVAAIDSVGNTNYADSVKGRFTISKDNSKNTLYLQMNSLRAEDTAVYYCAAQRCLGWVPLVPHEYGYWGQGTLVTVSS[human IgG1 Fc cut from this listing] | 0.0229 mg/L | –
huPT42v3Fc (Fc fusion) QVQLVESGGGSVQAGGSLRLSCAASGYTYSDVCMGWFRQAPGKGLEGVAAIDSVGNTNYADSVKGRFTISKDNSKNTLYLQMNSLRAEDTAVYYCAAQRCLGWVPLVPHEYGYWGQGTLVTVSS[human IgG1 Fc cut from this listing] | 0.0262 mg/L | –
huPT42v11Fc (Fc fusion, also called huPT42vlIFo) QVQLVESGGGLVQPGGSLRLSCAASGYTYSDVCMGWFRQAPGKEREGVAAIDSVGNTNYADSVKGRFTISKDNSKNTLYLQMNSLKPEDTAVYYCAAQRCLGWVPLVPHEYGYWGQGTLVTVSS[human IgG1 Fc cut from this listing] | 0.025 mg/L | –
huPT42v10Fc (Fc fusion, also called huPT42v1OFc) QVQLVESGGGSVQAGGSLRLSCAASGYTYSDVCMGWFRQAPGKEREGVAAIDSVGNTNYADSVKGRFTISRDNSKNTLYLQMNSLRAEDTAVYYCAAQRCLGWVPLVPHEYGYWGQGTLVTVSS[human IgG1 Fc cut from this listing] | 0.0255 mg/L | –
iPT28Fc (Fc fusion) QVQLQESGGGSVQAGGSLRLSCAASGYTYTSYCMGWFRQAPGKEREGVAGIDRDGIAVYADSVKGRFTVSKDNVEDTLSLQMNSLKPEDTAMYYCAADYRRWCRDEYEYWGQGTQVTVSS[human IgG1 Fc cut from this listing] | – | Kd (pertussis toxin (PT) [2]): 0.278 nM; koff (pertussis toxin (PT) [2]): 0.000111 s⁻¹; kon (pertussis toxin (PT) [2]): 399000 M⁻¹ s⁻¹
iPT21Fc (Fc fusion) QVQLQESGGGSVQAGGSLRLSCAASGYPYSRNCMAWFRQAPEKQREGVATIYNGDGTPYYADSVKGRFTISQDNAKNTVYLQMNSLKPDDTAIYYCAAARGCSLRTWSDQNLYAYWGQGTQVTVSS[human IgG1 Fc cut from this listing] | – | Kd (pertussis toxin (PT) [2]): 0.537 nM; koff (pertussis toxin (PT) [2]): 0.000278 s⁻¹; kon (pertussis toxin (PT) [2]): 517000 M⁻¹ s⁻¹

From US20230061378A1 (SUZHOU ALPHAMAB, published 2023)
